Data taken from the supplement of paper PMC3334620.
Whole data set: some 33,000 sequences, median “E-score (-0.5 to 0.5)” near -0.04, cut for the highest 2% near 0.36. The list shows a part of the results.

target: T1, Hmlalpha2 (UniProt P0CY09); assay: PBM E-score (8-mer binding enrichment) (E-score (-0.5 to 0.5)); higher = stronger / more preferred TF binding; most listed sequences are background and not binding sites; settings: protein concentration: 200 nM; construct: GST-full length
T1 sequence: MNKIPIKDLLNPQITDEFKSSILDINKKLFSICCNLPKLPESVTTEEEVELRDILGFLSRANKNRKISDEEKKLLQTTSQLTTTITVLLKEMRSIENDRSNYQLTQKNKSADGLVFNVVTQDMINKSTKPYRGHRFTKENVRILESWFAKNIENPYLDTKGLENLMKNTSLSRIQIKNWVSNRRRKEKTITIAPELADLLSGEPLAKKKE
How it was run: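 Yeast transcription factors, full-length or as DNA-binding domains, were expressed with a GST tag using PURExpress in vitro transcription/translation. At about 100-200 nM they were applied to universal all-10-mer Agilent arrays, double-stranded by primer extension on fresh or once-stripped slides. Fluorescent anti-GST detected bound protein, and masliner normalised the scans. E-scores for ungapped eight-base words, pooled with reverse complements, came from the Universal PBM Analysis Suite.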

Row | Sequence | PBM E-score
1 | ATCTTGCC | -0.0499
2 | CCATAAAG | -0.147
3 | AGACGCAT | 0.0445
4 | GACTTAGC | -0.207
5 | ACTTGTAG | 0.0979
6 | ACAGTGCC | -0.164
7 | ACCTCGGC | -0.152
8 | GAAAATTC | -0.0326
9 | TCCTCGAA | 0.0204
10 | CGTAAGGC | -0.00831
11 | TCCCCGGA | -0.135
12 | GAACCGCC | -0.231
13 | CTAGTTTC | -0.166
14 | CAGGGGAA | -0.248
15 | CGTTCGCC | -0.133
16 | AGTATTCG | -0.00324
17 | CAGGGCAG | -0.089
18 | CTTATTAA | 0.0883
19 | CAAAGTTC | -0.0484
20 | TACTAACA | 0.309
21 | CGGCGGCC | -0.188
22 | CATTGTGC | 0.0184
23 | GCCCATCC | -0.209
24 | AATCGGCT | -0.0964
25 | GAACCGGC | -0.33

Row | Sequence | PBM E-score
26 | CCTTATCA | 0.169
27 | CCTGTGAG | -0.0957
28 | ACACCGCG | 0.15
29 | ACCCAGAC | -0.0829
30 | ACATTCTC | 0.0991
31 | CGTGCGGA | -0.219
32 | CAGGAGAA | -0.236
33 | AATCCGTG | -0.129
34 | CACAGATG | 0.0986
35 | GGTACACA | 0.246
36 | CTAGGTTC | -0.252
37 | AGTAGACT | 0.0423
38 | ATAGGTTA | 0.196
39 | GAATACTA | 0.227
40 | GACGTTCC | -0.0125
41 | TCTTCCAA | 0.0415
42 | TAGCCACA | -0.0384
43 | GACGAGGC | -0.26
44 | AACACCTT | 0.135
45 | AAACATCG | 0.0183
46 | GGATTCAA | -0.166
47 | CCTAAATC | -0.0342
48 | CATAAAAA | 0.186
49 | CAGCATAA | -0.0659
50 | TGGGGAAA | -0.0193

Row | Sequence | PBM E-score
51 | CGGTCCTA | -0.253
52 | ACATTGCT | 0.235
53 | AATTCTAA | 0.13
54 | CTTGTTGA | 0.352
55 | CCGCCCAA | -0.139
56 | AGGCGAAG | -0.201
57 | GCGTTCCA | -0.128
58 | ATTTGCAG | -0.0744
59 | CAGACGCC | -0.145
60 | ATGATTCG | -0.0377
61 | GAGTTCTA | -0.142
62 | TACAGGAA | 0.158
63 | CTACCTTA | 0.00802
64 | GTACGTCA | 0.0179
65 | AGCGTGAT | 0.0131
66 | ATTGGCCG | -0.21
67 | CCTTTCAC | -0.0828
68 | CAGAGGAG | -0.284
69 | CAACGCTC | 0.0296
70 | CCTTGGCC | -0.362
71 | GCATATTA | 0.121
72 | AGTCGTAG | -0.0352
73 | GCGTTTCC | -0.0952
74 | ATAATCCG | 0.00942
75 | GTTTTCTA | 0.149

Row | Sequence | PBM E-score
76 | GCCCTGTA | 0.186
77 | AGTACTTC | 0.137
78 | GAAAAAGA | 0.0555
79 | ATTCCGGA | -0.129
80 | GCAAAAAA | 0.0934
81 | GCGTTACA | 0.276
82 | ATCTGTGG | -0.267
83 | GCAGCAGA | -0.0749
84 | GCGCGGGA | -0.185
85 | GCGCCACC | -0.155
86 | ATTTCATC | -0.0172
87 | TATAATGA | 0.172
88 | CAGGAATC | -0.185
89 | CGCACCAG | -0.0323
90 | GGTTCAAA | 0.0562
91 | ATTAAGTG | 0.126
92 | AGAACCAG | -0.122
93 | CGTATCCC | -0.0632
94 | GCGACCAC | -0.164
95 | AGAACCGA | -0.0617
96 | CACATCTA | 0.209
97 | GTACCCAA | -0.139
98 | AGTATACC | 0.051
99 | GACTAGTC | -0.106
100 | CTGCCCTC | -0.193

Row | Sequence | PBM E-score
101 | CAGAACCC | -0.163
102 | AATGTCCC | -0.253
103 | AGACCGGC | -0.132
104 | GCATTTCA | -0.082
105 | AATCCGAA | -0.117
106 | ATCCGTGG | -0.229
107 | AGGCGACA | -0.243
108 | ATACATTA | 0.33
109 | AGGTTCGG | -0.305
110 | GATATGGA | 0.0312
111 | AAGCTGGC | -0.0714
112 | CAGGGAAA | -0.215
113 | GCGTAAAC | 0.404
114 | CCGCAGCG | -0.224
115 | GAACCGTA | -0.288
116 | CTCGCTGA | 0.0421
117 | ATAAAACG | 0.153
118 | ACTATCGA | -0.078
119 | ACTTTGGC | -0.268
120 | AGGGGTGA | -0.304
121 | CAAACGGG | -0.0756
122 | ACTACTGC | -0.0623
123 | CCTCACAC | -0.126
124 | CGAGCTCC | -0.0747
125 | ACATTGAC | 0.301

Row | Sequence | PBM E-score
126 | CCAACTCA | -0.0864
127 | GCATGAGA | -0.0236
128 | GTTCCTAA | 0.0497
129 | GGCACAAC | -0.0178
130 | TGTTCCAA | 0.0785
131 | CAAAGGTA | 0.0262
132 | GCCTAGAA | -0.187
133 | TGAAGAAA | 0.149
134 | GAAGACAA | 0.0781
135 | CAATAATG | 0.117
136 | TCCTATAA | -0.0544
137 | CAGACTGG | -0.158
138 | CCACATCC | -0.219
139 | CTATCCGA | -0.159
140 | ACATTTCC | 0.13
141 | GCGAGGGA | -0.344
142 | CCAAATCC | -0.238
143 | ACATGTTG | 0.45
144 | GATTCAGC | -0.162
145 | ATAGCGTC | -0.0105
146 | GCCACGCC | -0.225
147 | CACTTCGA | -0.0376
148 | CTACAGGC | -0.0527
149 | GGTTGTAC | 0.11
150 | CAAAAATA | 0.0676

Row | Sequence | PBM E-score
151 | ATGAACGC | 0.113
152 | GTCGAAAC | -0.003
153 | AATCAACG | 0.202
154 | ACTGGCTC | -0.169
155 | TATGGACA | 0.0965
156 | CCATGAAC | -0.0422
157 | AGAACGGC | -0.102
158 | ACGTTCGC | -0.0695
159 | AGTTGCAC | 0.0331
160 | ATGTTAGC | 0.342
161 | TAGTTAGA | 0.0649
162 | ACTCAATC | -0.0188
163 | CAGGTGCG | -0.0581
164 | AGGTCCCC | -0.226
165 | AGTCGTGC | -0.0317
166 | CGTAATAG | 0.246
167 | TAGGTCAA | 0.00265
168 | TCCGTCCA | -0.263
169 | ATAGTCTA | 0.0205
170 | CCCCCATC | -0.275
171 | CCTAATTA | -0.0238
172 | GTCCTTAA | -0.0541
